# From the supplement of paper PMC8728848
# This is one part of the list.
# What was measured:
# Assay in all cases: glycan array binding signal (z-score within array); higher = stronger binding
# Details in all cases: glycan notation: IUPAC condensed, linker removed
# [1] = biological target: Neu5Ac(a2-6)Gal(b1-4)GlcNAc(b1-2)Man(a1-3)[Man(a1-6)]Man(b1-4)GlcNAc(b1-4)GlcNAc
# How it was run: (§1)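 The binding signal is a Z-score computed within each array. Data were drawn from 3228 arrays in the Consortium for Functional Glycomics database, restricted to those with a known protein sequence. Scores were averaged over arrays of the same protein sequence at different concentrations or buffers, and over linkers, and negative values can be taken as non-binding.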
# [2] = biological target: Neu5Ac(a2-6)Gal(b1-4)GlcNAc(b1-2)Man(a1-3)[Neu5Ac(a2-3)Gal(b1-4)GlcNAc(b1-2)Man(a1-6)]Man(b1-4)GlcNAc(b1-4)GlcNAc
# How it was run: as §1
# [3] = biological target: Neu5Ac(a2-6)Gal(b1-4)GlcNAc(b1-2)Man(a1-3)[Neu5Ac(a2-6)Gal(b1-4)GlcNAc(b1-2)Man(a1-6)]Man(b1-4)GlcNAc(b1-4)GlcNAc
# How it was run: as §1
# [4] = biological target: Neu5Ac(a2-6)Gal(b1-4)GlcNAc(b1-2)Man(a1-3)[Neu5Ac(a2-6)Gal(b1-4)GlcNAc(b1-2)Man(a1-6)]Man(b1-4)GlcNAc(b1-4)[Fuc(a1-6)]GlcNAc
# How it was run: as §1
# [5] = biological target: Neu5Ac(a2-6)Gal(b1-4)GlcNAc(b1-2)Man(a1-6)Man(b1-4)GlcNAc(b1-4)GlcNAc
# How it was run: as §1
# [6] = biological target: Neu5Ac(a2-6)Gal(b1-4)GlcNAc(b1-2)Man(a1-6)[Gal(b1-4)GlcNAc(b1-2)Man(a1-3)]Man(b1-4)GlcNAc(b1-4)GlcNAc
# How it was run: as §1
# [7] = biological target: Neu5Ac(a2-6)Gal(b1-4)GlcNAc(b1-2)Man(a1-6)[GlcNAc(b1-2)Man(a1-3)]Man(b1-4)GlcNAc(b1-4)GlcNAc
# How it was run: as §1
# [8] = biological target: Neu5Ac(a2-6)Gal(b1-4)GlcNAc(b1-2)Man(a1-6)[Man(a1-3)]Man(b1-4)GlcNAc(b1-4)GlcNAc
# How it was run: as §1
# [9] = biological target: Neu5Ac(a2-6)Gal(b1-4)GlcNAc(b1-2)[Neu5Ac(a2-6)Gal(b1-4)GlcNAc(b1-4)]Man(a1-3)[GlcNAc(b1-4)][Neu5Ac(a2-6)Gal(b1-4)GlcNAc(b1-2)[Neu5Ac(a2-6)Gal(b1-4)GlcNAc(b1-6)]Man(a1-6)]Man(b1-4)GlcNAc(b1-4)GlcNAc
# How it was run: as §1
# [10] = biological target: Neu5Ac(a2-6)Gal(b1-4)GlcNAc(b1-2)[Neu5Ac(a2-6)Gal(b1-4)GlcNAc(b1-4)]Man(a1-3)[GlcNAc(b1-4)][Neu5Ac(a2-6)Gal(b1-4)GlcNAc(b1-4)Man(a1-6)]Man(b1-4)GlcNAc(b1-4)GlcNAc
# How it was run: as §1
# [11] = biological target: Neu5Ac(a2-6)Gal(b1-4)GlcNAc(b1-2)[Neu5Ac(a2-6)Gal(b1-4)GlcNAc(b1-6)]Man(a1-6)[Neu5Ac(a2-6)Gal(b1-4)GlcNAc(b1-2)Man(a1-3)][GlcNAc(b1-4)]Man(b1-4)GlcNAc(b1-4)GlcNAc
# How it was run: as §1
# [12] = biological target: Neu5Ac(a2-6)Gal(b1-4)GlcNAc(b1-3)Gal(b1-3)GlcNAc
# How it was run: as §1
# [13] = biological target: Neu5Ac(a2-6)Gal(b1-4)GlcNAc(b1-3)Gal(b1-4)GlcNAc
# How it was run: as §1
# [14] = biological target: Neu5Ac(a2-6)Gal(b1-4)GlcNAc(b1-3)Gal(b1-4)GlcNAc(b1-2)Man(a1-3)[Neu5Ac(a2-6)Gal(b1-4)GlcNAc(b1-3)Gal(b1-4)GlcNAc(b1-2)Man(a1-6)]GalNAc
# How it was run: as §1
# [15] = biological target: Neu5Ac(a2-6)Gal(b1-4)GlcNAc(b1-3)Gal(b1-4)GlcNAc(b1-3)Gal(b1-4)GlcNAc
# How it was run: as §1
# [16] = biological target: Neu5Ac(a2-6)Gal(b1-4)GlcNAc(b1-3)Gal(b1-4)GlcNAc(b1-3)Gal(b1-4)GlcNAc(b1-2)Man(a1-3)[Neu5Ac(a2-6)Gal(b1-4)GlcNAc(b1-3)Gal(b1-4)GlcNAc(b1-3)Gal(b1-4)GlcNAc(b1-2)Man(a1-6)]GalNAc
# How it was run: as §1
# [17] = biological target: Neu5Ac(a2-6)Gal(b1-4)GlcNAc(b1-3)Gal(b1-4)GlcNAc(b1-3)GalNAc
# How it was run: as §1
# [18] = biological target: Neu5Ac(a2-6)Gal(b1-4)GlcNAc(b1-3)Gal(b1-4)GlcNAc(b1-3)[Neu5Ac(a2-6)Gal(b1-4)GlcNAc(b1-3)Gal(b1-4)GlcNAc(b1-6)]GalNAc
# How it was run: as §1
# [19] = biological target: Neu5Ac(a2-6)Gal(b1-4)GlcNAc(b1-3)Gal(b1-4)GlcNAc(b1-6)[Gal(b1-3)]GalNAc
# How it was run: as §1
# [20] = biological target: Neu5Ac(a2-6)Gal(b1-4)GlcNAc(b1-3)Gal(b1-4)[Fuc(a1-3)]GlcNAc(b1-3)Gal(b1-4)[Fuc(a1-3)]GlcNAc
# How it was run: as §1
# [21] = biological target: Neu5Ac(a2-6)Gal(b1-4)GlcNAc(b1-3)GalNAc
# How it was run: as §1
# [22] = biological target: Neu5Ac(a2-6)Gal(b1-4)GlcNAc(b1-3)[Neu5Ac(a2-6)Gal(b1-4)GlcNAc(b1-6)]GalNAc
# How it was run: as §1
# [23] = biological target: Neu5Ac(a2-6)Gal(b1-4)GlcNAc(b1-6)GalNAc
# How it was run: as §1
# [24] = biological target: Neu5Ac(a2-6)Gal(b1-4)GlcNAc(b1-6)[Gal(b1-3)GlcNAc(b1-3)]Gal(b1-4)Glc
# How it was run: as §1
# [25] = biological target: Neu5Ac(a2-6)Gal(b1-4)GlcNAc(b1-6)[Gal(b1-3)]GalNAc
# How it was run: as §1
# [26] = biological target: Neu5Ac(a2-6)Gal(b1-4)GlcNAc6S
# How it was run: as §1
# Neu5Ac(a2-6)GalNAc = biological target: Neu5Ac(a2-6)GalNAc
# How it was run: as §1
# [27] = biological target: Neu5Ac(a2-6)GalNAc(b1-4)GlcNAc
# How it was run: as §1
# [28] = biological target: Neu5Ac(a2-6)GalNAc(b1-4)GlcNAc6S
# How it was run: as §1
# [29] = biological target: Neu5Ac(a2-6)GlcNAc(b1-4)GlcNAc
# How it was run: as §1
# [30] = biological target: Neu5Ac(a2-6)GlcNAc(b1-4)GlcNAc(b1-4)GlcNAc
# How it was run: as §1
binder,measurement,setting,value
"CrataBL (Crataeva tapia), C0HJA4 (protein) AILTGVPYYILPSTSRAGFSPDNLRKNTSQLSCPLDLITQLRFPRRIGVPVIFTPQNSSLKVVPLSHNLNIHTCSDLWFCPESKIWTVKSSLTHGGSVVTTGGTFRSLGSWFRIERHGDSYKLVHCPRGSTPCRDVGIETVGGGGRRYLAPRDRPLAVRFTRASG",glycan array binding signal (z-score),[1],0.115
same,glycan array binding signal (z-score),[2],-0.44
same,glycan array binding signal (z-score),[3],-0.461
same,glycan array binding signal (z-score),[4],-0.255
same,glycan array binding signal (z-score),[5],0.323
same,glycan array binding signal (z-score),[6],0.067
same,glycan array binding signal (z-score),[7],-0.297
same,glycan array binding signal (z-score),[8],-0.041
same,glycan array binding signal (z-score),[9],-0.075
same,glycan array binding signal (z-score),[10],-0.226
same,glycan array binding signal (z-score),[11],-0.07
same,glycan array binding signal (z-score),[12],-0.22
same,glycan array binding signal (z-score),[13],-0.153
same,glycan array binding signal (z-score),[14],0.403
same,glycan array binding signal (z-score),[15],-0.157
same,glycan array binding signal (z-score),[16],1.18
same,glycan array binding signal (z-score),[17],-0.075
same,glycan array binding signal (z-score),[18],0.817
same,glycan array binding signal (z-score),[19],0.72
same,glycan array binding signal (z-score),[20],-0.163
same,glycan array binding signal (z-score),[21],-0.316
same,glycan array binding signal (z-score),[22],0.352
same,glycan array binding signal (z-score),[23],1.16
same,glycan array binding signal (z-score),[24],-0.375
same,glycan array binding signal (z-score),[25],0.365
same,glycan array binding signal (z-score),[26],0.066
same,glycan array binding signal (z-score),Neu5Ac(a2-6)GalNAc,-0.499
same,glycan array binding signal (z-score),[27],-0.505
same,glycan array binding signal (z-score),[28],0.021
same,glycan array binding signal (z-score),[29],-0.099
same,glycan array binding signal (z-score),[30],-0.16
